Experimental data published in PubChem BioAssay AID488969 (Vanderbilt High Throughput Screening Facility, 2010).
In all, about 110,000 compounds were measured (“z-score”: median about -0.1, highest 2% from about 2 on). The list shows a part of the results.

Target: Metabotropic glutamate receptor 8 (Rattus norvegicus) (UniProt P70579)
Assay: rat mGluR8 modulators via GIRK flux, primary screen, cell-based, thallium flux, HTS (AID 488969)
Details: HEK293 rat mGluR8, GIRK (G protein-gated inwardly rectifying potassium channel) thallium flux, FluoZin2; at 10 µM; stronger effect = higher value; submaximal glutamate (EC20) added with thallium

Chain of UniProt P70579 (P70579 whole entry, looked up): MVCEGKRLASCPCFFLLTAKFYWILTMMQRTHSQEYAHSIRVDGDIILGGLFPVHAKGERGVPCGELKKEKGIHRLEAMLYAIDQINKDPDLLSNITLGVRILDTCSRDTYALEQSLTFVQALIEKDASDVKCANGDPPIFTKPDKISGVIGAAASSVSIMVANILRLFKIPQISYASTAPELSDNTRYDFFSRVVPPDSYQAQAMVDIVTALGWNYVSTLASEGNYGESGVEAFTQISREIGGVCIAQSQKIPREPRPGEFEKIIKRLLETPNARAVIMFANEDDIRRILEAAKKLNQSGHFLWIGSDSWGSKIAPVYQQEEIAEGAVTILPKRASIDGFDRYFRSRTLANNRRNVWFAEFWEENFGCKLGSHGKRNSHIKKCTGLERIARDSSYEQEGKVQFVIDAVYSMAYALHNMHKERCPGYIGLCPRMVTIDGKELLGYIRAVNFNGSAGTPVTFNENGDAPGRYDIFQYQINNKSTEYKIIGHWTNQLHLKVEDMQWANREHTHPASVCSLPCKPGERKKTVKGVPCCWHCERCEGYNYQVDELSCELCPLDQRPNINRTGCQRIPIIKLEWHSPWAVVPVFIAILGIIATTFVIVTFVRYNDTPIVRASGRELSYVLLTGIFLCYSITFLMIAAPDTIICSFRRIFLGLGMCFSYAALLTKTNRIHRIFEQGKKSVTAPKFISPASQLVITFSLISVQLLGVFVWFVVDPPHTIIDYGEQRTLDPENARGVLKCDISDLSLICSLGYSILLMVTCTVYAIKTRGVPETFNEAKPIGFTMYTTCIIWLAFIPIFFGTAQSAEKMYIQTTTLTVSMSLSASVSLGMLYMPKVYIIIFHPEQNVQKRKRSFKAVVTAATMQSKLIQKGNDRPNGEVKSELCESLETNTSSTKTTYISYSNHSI

Row | Structure (SMILES) | z-score
1 | CC1CCN(CCc2nc3cc(NC(=O)NC4CCCCC4)ccc3n2C)CC1 | -0.109
2 | O=C(Nc1ncnc2c1CCC2)C12CC3CC(CC(C3)C1)C2 | 0.0614
3 | CCCNC(=O)c1ccccc1NC(=O)Nc1ccccc1C | 0.392
4 | COc1cc2c(cc1OC)C(C(=O)N1CCN(c3ccccc3)CC1)C(c1cccs1)N(C)C2=O (stereo not given) | 1.09
5 | Cc1c(Cl)c([N+](=O)[O-])nn1CC(=O)NC1CCCCC1 | 0.15
6 | Cc1cnn(C(=O)c2cc(-c3ccccc3)nc3ccccc23)c1 | -0.147
7 | Nc1ccc(C(=O)OCC(=O)Nc2ccc3c(c2)OCO3)cc1[N+](=O)[O-] | 0.149
8 | O=S(=O)(NC1=NCCCCC1)c1ccc2ccccc2c1 | -0.393
9 | Cc1cc(Nc2ccc(Cl)cc2)n(-c2ccccc2)n1 | -0.464
10 | COc1ccc(OC)c(C(c2nnnn2C2CCCC2)N2CCN(c3ccccc3F)CC2)c1 (stereo not given) | -0.346
11 | CC(=O)Nc1c(NC(C)C)c2ccccc2oc1=O | -0.112
12 | CC1CCN(C(=O)CCCOc2ccc(Cl)cc2)CC1 | -0.565
13 | CC(=O)Oc1ccc(Cl)cc1/C=C/c1ccc2ccccc2n1 | -0.219
14 | Cc1cccc(NC(=S)NC2CC3CCC(C2)N3Cc2ccco2)c1C (stereo not given) | -0.184
15 | Nc1nc(Br)c2c(F)cccc2c1-c1ccccc1 | 0.0016
16 | O=c1cc(CO)occ1OCc1ccccc1 | -0.141
17 | Cc1ccc(S(=O)(=O)Nc2c(C)n(C)n(-c3ccccc3)c2=O)cc1 | 0.244
18 | CCOC(=O)C(OC(=O)c1sc(=S)n(C)c1C)C(C)=O (stereo not given) | -0.351
19 | Cc1nc(SCC(=O)O)c2oc3ccccc3c2n1 | -0.0394
20 | CNC(=O)C1=NCCCc2cc(OC)c(OC)cc21 | 0.141
21 | O=C(O)CCN1C(=O)c2ccc(Oc3ccc4c(c3)C(=O)N(CCC(=O)O)C4=O)cc2C1=O | -0.299
22 | Cc1cc(C)c(NC(=O)CS(=O)CC(=O)NCC2CCCO2)c(C)c1 (stereo not given) | -0.212

Row | Structure (SMILES) | z-score
23 | CCOc1c(Cl)cc(CNCC(C)C)cc1Cl | 0.367
24 | O=C(Cn1cncn1)NCc1cccc2ccccc12 | -0.0174
25 | CCN1CCCC1CNc1ncnc2c1[nH]c1ccc(F)cc12 (stereo not given) | 2.55
26 | O=S(=O)(Nc1ccc(N2CCOCC2)cc1)c1ccc(Cl)s1 | -0.104
27 | COCCNC(=O)c1ccc(NS(C)(=O)=O)cc1 | -0.321
28 | CCCCOCCCNC(=O)Cc1ccccc1OC | -1.07
29 | O=[N+]([O-])c1ccc(COc2ccc(-c3[nH]ncc3-c3ccccc3)c(O)c2)cc1 | 0.418
30 | CCc1cc(=O)oc2c(CN3CCN(C)CC3)c(O)c(Cl)cc12 | 0.172
31 | Nc1c(C(=O)NC2CC2)sc2nc3c(c(-c4ccco4)c12)CC/C3=C/c1ccco1 | -0.208
32 | Cc1ccc(CNC(=O)C23CN(Cc4ccccc4)CC2C(c2cccc([N+](=O)[O-])c2)=NO3)cc1 (stereo not given) | -0.0916
33 | N#Cc1c(N)nc(SCC(=O)C23CC4CC(CC(C4)C2)C3)c(C#N)c1-c1ccc(Cl)cc1 | -0.933
34 | O=C(Nc1cccc2cccc(NC(=O)c3ccco3)c12)c1ccco1 | -0.0463
35 | COC(=O)c1ccc(CN(c2ccccc2OC)S(=O)(=O)c2cccs2)o1 | -0.365
36 | N#CCCn1c(-c2nonc2NC(=O)c2ccccc2Cl)nc2ccccc21 | -1.16
37 | CCn1c(SCC(=O)Nc2nc(C)c(C(=O)OC)s2)nnc1C(C)C | 0.437
38 | O=C(CSc1nc2ccccc2c(=O)n1CCC(=O)N1CCCCC1)NCc1ccccc1 | -1.42
39 | COc1c(Cl)cc(Cl)cc1/C=N/n1cnnc1 | -0.0431
40 | COc1ccccc1N1C(=O)C2ON(c3ccccc3)C(c3ccc(N(C)C)cc3)C2C1=O (stereo not given) | 0.0686
41 | CCOc1ccc(OCC)c(NC(=O)CCn2cccc2)c1 | -0.394
42 | COC(=O)c1cnc2ccccc2n1 | -0.159
43 | CCc1ccc(-c2cc(C(F)(F)F)n3nc(C(=O)Nc4c(C)nn(Cc5ccccc5C)c4C)cc3n2)s1 | -0.0611
44 | CN(CCC#N)c1ccc(/C=C(\C#N)c2ccccn2)cc1 | -0.331

Row | Structure (SMILES) | z-score
45 | CCOc1ccccc1N/C(=N/c1nc(C)cc(C)n1)NC(=O)Nc1ccc(Cl)c(Cl)c1 | 0.254
46 | COC(=O)C(C)Oc1ccc2c3c(c(=O)oc2c1)CCCCC3 (stereo not given) | -0.318
47 | CCOC(=O)C1=C(C)C2C3C(=O)N(c4cc(C)ccc4C)C(=O)C3C1(C)C1C(=O)N(c3cc(C)ccc3C)C(=O)C21 (stereo not given) | 0.469
48 | COc1ccc2c(c1)CCc1c(C(=O)NCc3cccnc3)noc1-2 | -0.358
49 | Cc1nnc(-c2ccco2)c2cn(-c3cccc(Br)c3)nc12 | -0.309
50 | O=C(OCc1ccccn1)c1ccc(COc2ccccc2Cl)o1 | -0.106
51 | O=C(CSCc1ccc(F)cc1)N1CCOCC1 | -0.0267
52 | O=C(c1cccnc1)N1CCc2ccccc2C1 | 0.587
53 | CCN(CC)C(=O)COc1ccc2oc(C)c(C(=O)OC(C)C)c2c1 | -0.537
54 | Cc1cccc(N(CC(=O)Nc2ccc(F)cc2)S(C)(=O)=O)c1 | 0.171
55 | COCCCNC(=O)c1ccccc1NS(C)(=O)=O | -0.124
56 | Cc1ccc(C(=O)N2CCN(C(=O)CN3CCCC3)C2)cc1 | -0.0665
57 | COc1ccc(/C=C2\C(=O)OCc3cc(OC)c(OC)cc32)cc1OC | -0.0398
58 | COc1cccc2c(=O)cc(C)n(CC(=O)Nc3ccccc3C)c12 | -0.331
59 | Cc1ccc(SCc2nc3ccccc3n2CC(=O)Nc2ccc(Cl)cc2)cc1 | -0.494
60 | C=CCn1c(SCC(=O)NC(N)=O)nnc1-c1cc2c(s1)CCC(CC)C2 (stereo not given) | -1.23
61 | O=C(Cc1ccccc1)N/N=C\c1ccc(Br)o1 | -0.0925
62 | Nn1c(SCC(=O)Nc2nc3ccccc3s2)nncc1=O | -0.213
63 | O=C(CN1CCCc2ccccc21)N/N=C/c1c(O)ccc2ccccc12 | -0.0957
64 | C=C(C)Cc1c(C)nc(-c2ccccc2)[nH]c1=O | -0.288
65 | N=c1c2c3c(sc2ncn1CCN1CCOCC1)CCCCC3 | 1.72
66 | O=C(Nc1ccc(Br)cn1)C1CCCN1S(=O)(=O)c1ccccc1 (stereo not given) | -0.0381

Row | Structure (SMILES) | z-score
67 | Cc1ccccc1NC(=O)CCN1CCN(C/C=C/c2ccccc2)CC1 | -0.0469
68 | CCOC(=O)c1cn(CC(=O)Nc2cccc(Cl)c2C)nn1 | -0.294
69 | Cc1cc(NC(=O)C2CCN(S(=O)(=O)Cc3ccccc3)CC2)ccc1-n1cnnn1 | -0.19
70 | CC(C)C(=O)Nc1ccc(N2CCCC2)cc1 | -0.815
71 | O=C(N/N=C/c1cn(-c2ccccc2)nc1-c1ccc(F)cc1)c1ccc2c(c1)OCO2 | 0.228
72 | Cn1c(=O)oc2cc(S(=O)(=O)N3CCCC(C(=O)Nc4ccccn4)C3)ccc21 (stereo not given) | -0.21
73 | COc1ccc(/C=N/NC(=O)C(=O)NCc2cccnc2)cc1OC | 0.161
74 | O=C(Nc1cc(Cl)cc(Cl)c1)c1cccc(OC(F)F)c1 | -0.396
75 | Cc1ccccc1OCCSc1nnc(-c2ccncc2)n1C | -0.096
76 | Cc1cc(=O)[nH]c(SCC(=O)Nc2nc(-c3ccccc3)cs2)n1 | -1.18
77 | COc1ccc(NC(=O)CSc2ccccc2)cc1S(=O)(=O)N1CCCCC1 | -0.233
78 | N#CCCn1[nH]c(-c2ccccc2)cc1=O | -0.183
79 | CC1(C)C(O)=C(c2nc3ccccc3[nH]2)C(=N)N1c1ccccc1 | -0.0993
80 | CC(=O)Nc1sc(C)c(C)c1C(=O)OCC(=O)N(C)C1CCS(=O)(=O)C1 (stereo not given) | 0.0245
81 | COc1ccc(C(=O)NC(Cc2ccccc2)c2ccc3c(c2)OCCCO3)cc1 (stereo not given) | -0.19
82 | CC(=O)NNC(=O)CC(=O)Nc1nc(C23CC4CC(CC(C4)C2)C3)cs1 | -0.221
83 | O=C(c1ccc(N2CCCCC2)c([N+](=O)[O-])c1)N(Cc1ccccc1)c1ccccn1 | -0.364
84 | COc1cccc(N2CC(C(=O)Nc3nnc(SCC(=O)c4ccccc4)s3)CC2=O)c1 (stereo not given) | 0.128
85 | Cc1ccc(N(Cc2ccc(C(=O)Nc3ccccc3C(=O)NCc3ccco3)cc2)S(C)(=O)=O)cc1C | -0.321
86 | CC(=O)Oc1ccc(Oc2ccc(-c3noc(C)n3)cc2)cc1 | -0.184
87 | COc1ccc(CNC(=O)C2CC(c3ccccc3[N+](=O)[O-])=NO2)cc1 (stereo not given) | -0.076
88 | CCC(=O)Nc1ccc2nc(C3CC3)n(Cc3ccccc3)c(=O)c2c1 | 0.23

Row | Structure (SMILES) | z-score
89 | CC(=O)c1cccc(NS(=O)(=O)c2cc(OCC(N)=O)c(C)cc2Cl)c1 | -0.271
90 | Nc1cc(N)nc(SCC(=O)N2CCN(C(=O)c3ccco3)CC2)n1 | -0.174
91 | Nc1nc(SCc2ccc([N+](=O)[O-])cc2)c2ncn(C3OC(CO)C(O)C3O)c2n1 (stereo not given) | 2.28
92 | CC(=O)/C(C(=N)N1CCN(c2cccc(Cl)c2)CC1)=C(\C)O | -0.0545
93 | Cc1ccccc1C(=O)N/N=C/c1ccc([N+](=O)[O-])s1 | 2.95
94 | O=C(c1ccco1)c1cn(CC(=O)N2CCCc3ccccc32)c2ccccc12 | -0.386
95 | CC(=O)c1cc2c(cc1NC(=O)Nc1cccc(Cl)c1)OCCO2 | -1.57
96 | CC(C)CCN1C(=O)CCC1(C)C(=O)NC1CCCCCC1 (stereo not given) | -0.212
97 | OCCN(CCO)CC(O)COc1ccc2c(c1)OCO2 (stereo not given) | 1.26
98 | CCOC(=O)C1=C(C)OC(N)=C(C#N)C1c1c(C)nn(-c2ccc(C)cc2)c1Cl (stereo not given) | -1.07
99 | Cc1ccc(-c2nnn(CC(=O)N(CCO)C(C(=O)NC(C)(C)C)c3ccncc3)n2)cc1 (stereo not given) | 0.15
100 | CCN(CC(=O)NCCc1ccccc1)S(=O)(=O)c1ccc(C)cc1 | -0.528
101 | Cc1nnc(NC(=O)CCSc2ccccc2)s1 | 2.67
102 | c1ccc(SCc2nc3ccccc3[nH]2)cc1 | -0.0589
103 | COc1ccc(C2=NOC3(CC(=O)N(c4ccc(F)cc4)C3=O)C2)c(OC)c1 (stereo not given) | 1.54
104 | NC(=O)CN1CCOCCOCCN(CC(N)=O)CCOCC1 | -0.21
105 | O=C1CCC(=O)N1c1nc2nc(-c3ccccc3)cc(=O)n2[nH]1 | -0.309
106 | Cc1nc(-c2ccc(NS(C)(=O)=O)cc2)cs1 | -0.203
107 | CCOc1ccc(NC(=O)Cn2nc(-c3ccccc3Cl)n(CC)c2=S)cc1 | -0.441
108 | CC(=O)Nc1ccc2nc(-c3ccncc3)[nH]c2c1 | -0.0987
109 | Cc1ccc(S(=O)(=O)NC(C)C(=O)Nc2ccccc2C(=O)N2CCCC2)cc1 (stereo not given) | -1.26
110 | CC1(C)CC(N(Cc2cccs2)C(=O)c2ccco2)CCO1 (stereo not given) | -0.0734
